# Reference: PubChem BioAssay AID1460 (National Center for Advancing Translational Sciences (NCATS), 2008)
# Out of some 270,000 compounds screened, about 5,800 (2.1%) were called active. This list was built around the results that the source calls inconclusive (neither active nor inactive); the mix of calls is not that of the screen. Calls come from the whole dose curve; as a rule, active = well fitted inhibition curve with a large enough effect; inconclusive = small, poorly fitted or top-dose-only effect; inactive = flat fitted curve, though single readings scatter. A potency beside an inconclusive call is a rough fit, not a confirmed value.
# Target: Microtubule-associated protein tau (Homo sapiens) (UniProt P10636)
# Test: qHTS for Inhibitors of Tau Fibril Formation, Thioflavin T Binding; note: nearly all actives have a fitted effect of over 55% in size
# Details: recombinant tau K18 P301L (four-repeat tau fragment), heparin-induced fibrillization, ThT fluorescence; series mostly up to 57.4 µM; activity, negative = inhibition: at the top concentration
# Method in brief: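 K18 P301L tau (15 uM + 0.24 uM Alexa 594-tagged), heparin 20 uM, NaOAc pH 7, 6 h 37 C; ThT 30 uM, 1 h RT, ex 450/em 510 nm.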
# % is set by controls: 0 for no effect and ±100 for the full control effect; potency is the fitted concentration of half-maximal effect; tags give direction and shape of the fitted curve.
# UniProt P10636, sequence (P10636 whole entry, looked up): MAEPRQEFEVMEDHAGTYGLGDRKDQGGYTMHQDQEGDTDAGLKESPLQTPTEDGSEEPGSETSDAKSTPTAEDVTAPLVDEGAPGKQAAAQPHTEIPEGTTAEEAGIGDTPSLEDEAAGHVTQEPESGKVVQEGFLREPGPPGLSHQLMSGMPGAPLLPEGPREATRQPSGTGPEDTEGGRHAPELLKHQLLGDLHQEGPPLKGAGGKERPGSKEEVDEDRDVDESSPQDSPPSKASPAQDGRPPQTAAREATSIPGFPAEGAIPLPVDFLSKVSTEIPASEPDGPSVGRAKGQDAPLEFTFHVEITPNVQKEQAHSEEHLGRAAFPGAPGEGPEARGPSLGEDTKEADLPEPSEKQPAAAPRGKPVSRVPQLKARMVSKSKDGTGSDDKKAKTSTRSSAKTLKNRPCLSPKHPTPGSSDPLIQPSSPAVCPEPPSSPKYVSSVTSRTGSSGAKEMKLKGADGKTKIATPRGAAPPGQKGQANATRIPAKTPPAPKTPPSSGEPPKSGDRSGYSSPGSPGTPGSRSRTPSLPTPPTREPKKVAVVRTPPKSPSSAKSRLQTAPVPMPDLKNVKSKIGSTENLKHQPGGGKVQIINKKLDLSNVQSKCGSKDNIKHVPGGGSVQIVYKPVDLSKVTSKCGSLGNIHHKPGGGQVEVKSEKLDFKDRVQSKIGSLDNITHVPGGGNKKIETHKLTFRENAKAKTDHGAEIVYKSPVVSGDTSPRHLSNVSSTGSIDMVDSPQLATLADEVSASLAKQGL
SMILES,Potency,"activity, negative = inhibition"
O=C(/C=C/c1ccco1)NC(=S)NNC(=O)c1ccco1,"inconclusive: 25.1 µM [inhibitor, partial curve]",–
C/C(=N/NC(=O)c1cn(-c2cccc(C)n2)cn1)c1ccc(C)cc1,"inconclusive: 0.708 µM [inhibitor, full curve]",–
Cc1ccc(C2NC(=S)NC3=C2C(=O)CC(C)(C)C3)cc1 (stereo not given),–,inactive: -3.48%
Cc1c(C)c2cc3c(c(C)c2oc1=O)OCN(CCc1ccc(F)cc1)C3,–,inactive: -2.15%
CC(C)CC(NC(N)=O)C(=O)Nc1ccc2c(c1)OCO2 (stereo not given),"inconclusive: 25.1 µM [inhibitor, partial curve]",–
COc1cc2[nH]c(=O)n(CCC(=O)N3CCN(c4cccc(C)c4C)CC3)c(=O)c2cc1OC,"inconclusive: 25.1 µM [inhibitor, partial curve]",–
COc1cc(N=c2ssnc2Cl)cc(OC)c1OC,active: 20 µM,–
Cc1nn2c(C)c(C(=O)NC(C)(C)C)cnc2c1-c1ccc(F)cc1,–,inactive: -1.56%
COc1cc(SC)ccc1C(=O)NCCc1ccccc1,"inconclusive: 39.8 µM [inhibitor, single point]",–
CC1=NN(C(N)=S)C(=O)C1N=Nc1cccc2ccccc12 (stereo not given),active: 3.98 µM,–
Cc1nc([N+](=O)[O-])c(Sc2nc3ccccc3[nH]2)n1Cc1ccccc1,"inconclusive: 22.4 µM [inhibitor, partial curve]",–
COC(=O)CSc1ncnc2c(C)csc12,–,inactive: 0.966%
N#Cc1ccccc1NS(=O)(=O)c1ccc(N2CCCCS2(=O)=O)cc1,–,inactive: 11.4%
CCCc1nn2c(=O)cc(COC(=O)c3ccc(NC(=O)COc4ccccc4)cc3)nc2s1,–,inactive: 6.06%
Clc1ccc(-n2ncc3c(NCc4cccs4)ncnc32)cc1,–,inactive: -8.47%
O=C(NCc1ccco1)C(=O)c1cn(CC(=O)N2CCCCCC2)c2ccccc12,"inconclusive: 10 µM [inhibitor, partial curve]",–
CN1C(=O)c2ccccc2Sc2ccc(NC(=O)c3ccc(C(F)(F)F)cc3)cc21,–,inactive: 14%
COc1ccc(Cl)cc1C(Nc1cccnc1)c1ccc2cccnc2c1O (stereo not given),active: 28.2 µM,–
CN(C)C=Nc1c(Br)cc(Br)c2nonc12,"inconclusive: 25.1 µM [inhibitor, partial curve]",–
Cc1ccc(S(=O)(=O)CC(=O)N2CCN(c3nc4c(F)cccc4s3)CC2)cc1,"inconclusive: 2.24 µM [inhibitor, partial curve]",–
O=C(/C=C/c1c[nH]c2ccccc12)c1cccc2ccccc12,"inconclusive: 11.2 µM [inhibitor, partial curve]",–
CC(=O)NS(=O)(=O)c1ccc(N=c2ssc3c2-c2ccc(C)cc2NC3(C)C)cc1,"inconclusive: 20 µM [inhibitor, single point]",–
Nc1ccccc1SCC(=O)Nc1nc(-c2ccccc2)cs1,"inconclusive: 14.1 µM [inhibitor, partial curve, poor fit]",–

SMILES,Potency,"activity, negative = inhibition"
COc1cccc(OCc2nc3ccccc3c(=O)n2N)c1,"inconclusive: 39.8 µM [inhibitor, single point]",–
COc1c(O)ccc(/C=N/NC(=O)c2ccc3c(c2)OCCO3)c1[N+](=O)[O-],"inconclusive: 5.01 µM [inhibitor, partial curve]",–
Cc1ccc(C)c(Sc2ccc(NC(=O)CCl)cc2)c1,"inconclusive: 39.8 µM [inhibitor, single point]",–
CCCCN(C)CCNC(=O)c1cc2c(=O)n(C)c3ccccc3c2n1C,–,inactive: 5.92%
O=C1C(Nc2ccccc2)=C/C(=N/S(=O)(=O)c2cccs2)c2ccccc21,active: 3.55 µM,–
COc1ccc(NC(=O)c2ccc3nc(C(C)C)oc3c2)cc1OC,"inconclusive: 12.6 µM [inhibitor, partial curve, poor fit]",–
Cc1ccc(C(=O)O/N=C\c2ccc(N3CCCCC3)c([N+](=O)[O-])c2)cc1,active: 4.47 µM,–
COc1ccc(Cl)cc1-c1n[nH]c(=S)n1C1CCCCC1,"inconclusive: 28.2 µM [inhibitor, single point]",–
COc1ccc(Nc2cc(C(=O)NCCCN3CCN(c4ccccc4F)CC3)c3ccccc3n2)c(OC)c1,"inconclusive: 14.1 µM [inhibitor, partial curve]",–
Cc1ccc(-c2ccc(=O)n(CCC(=O)NCCc3ccccc3)n2)cc1,–,inactive: -2.88%
COc1ccc(NC(=S)N/N=C2\CC(C)(C)Oc3ccc(O)cc32)cc1,"inconclusive: 20 µM [inhibitor, single point]",–
COc1ccccc1C(=O)Nc1ccc(N2CCCCC2)cc1,"inconclusive: 20 µM [inhibitor, partial curve]",–
Cc1ccc(S(=O)(=O)/C(C#N)=C/c2c[nH]c3ccccc23)cc1,"inconclusive: 25.1 µM [inhibitor, partial curve, poor fit]",–
CCN(CC)CCNC(=O)c1cc2c(=O)n(C)c3cc(Cl)ccc3c2s1,–,inactive: -18.8%
COC(=O)c1cc2oc3ccccc3c2n1Cc1ccc(Cl)cc1,"inconclusive: 31.6 µM [inhibitor, single point]",–
Cc1ccccc1N1CCN(C(=O)c2ccc(Oc3ccc(C(F)(F)F)cn3)cc2)CC1,"inconclusive: 14.1 µM [inhibitor, partial curve]",–
CCC1=C(OC(=O)N(CC)CC)N2C(=O)OC(=NCCc3c[nH]c4ccccc34)[C@]2(C)[C@H]2C1=CC[C@H]1C(=O)N(CC)C(=O)[C@H]12,"inconclusive: 39.8 µM [inhibitor, single point]",–
Cc1ccc(NCc2ccc(O)c3ncccc23)cc1C,–,inactive: 4.18%
CCOC(=O)/C(C#N)=C/c1ccc(OCC(=O)Nc2ccc(C)c(C)c2)c(OC)c1,"inconclusive: 1.12 µM [inhibitor, partial curve]",–
CCc1nn2cc(C(=O)c3cc(C)ccc3O)cnc2c1-c1ccc(F)cc1,–,inactive: -13.3%
Cc1cc2oc(=O)cc(Cn3ncc(Cl)c(Cl)c3=O)c2cc1Cl,"inconclusive: 28.2 µM [inhibitor, partial curve]",–
Cc1ccc(C(=O)NCCn2cc(SCC(=O)Nc3nnc(C)s3)c3ccccc32)cc1,"inconclusive: 17.8 µM [inhibitor, partial curve]",–
